We go through 54 compounds from ChEMBL document CHEMBL4888484, “Replenishing the malaria drug discovery pipeline: Screening and hit evaluation of the MMV Hit Generation Library 1 (HGL1) against asexual blood stage Plasmodium falciparum ,using a nano luciferase reporter read-out” (2022).

In all, about 150,000 compounds went through this assay and about 540 (0.36%) showed an effect of 50% or more. Some of the results follow.

This experiment has as its system Plasmodium falciparum. The experiment in a line: Primary screen in NF54 nanoGlo assay, in single point, at 2uM, 72h; a lower Z score goes with more inhibition. It counts as functional, Erythrocyte. The note with it: timepoint 72 hour.
`O=C(CCn1cnc2cc(S(=O)(=O)N3CCCCC3)ccc21)NCc1ccc(F)cc1`: the “% Inhibition” value is reported as -18% and the Z score was 1.83.

Take `Cc1cc(C)c(NC(=O)OCc2cccc3cccnc23)c(C)c1`: the “% Inhibition” value was 88% and the Z score was -13.23.

On to `O=C(Nc1ccc(Cl)c(Cl)c1)c1cc(Br)ccc1NS(=O)(=O)c1ccc(Br)c2nsnc12`, for which the “% Inhibition” value is listed as -10% and the Z score is on record as 1.29.

On to `CCC(=O)N1CCC(N2C[C@H](OCC3CC3)C23CCOCC3)CC1`, for which the “% Inhibition” value is recorded as -7% and the Z score came to 1.32.

As for `COc1cccc2c1OC[C@H](NC(=O)c1cnc(N(C)C)cn1)C2=O`, the “% Inhibition” value is -2% and the Z score worked out at 0.3.

As for `COCC(=O)NC[C@H](O)c1c(Cl)cccc1Cl`, the “% Inhibition” value is -1% and the Z score is on record as 0.18.

For `c1cc2c(cc1[C@H]1NCCCCCCO1)OCO2`, the “% Inhibition” value is given as 40% and the Z score was -5.19.

As for `CCN(CC)C(=O)Cn1nc(C(F)(F)F)c2cnccc21`, the “% Inhibition” value was 16% and the Z score is -1.58.

On to `CC(C)(NC(=O)c1cccs1)C(=O)NC1CCCCCC1`, for which the “% Inhibition” value is listed as -5% and the Z score came out at 0.7.

`CC(C)n1cc(NC(=O)NC[C@H]2c3ccccc3C(=O)N2C)cn1`: the “% Inhibition” value was -16% and the Z score is recorded as 2.29.

On to `Fc1ccc2ncnc(N3CCN(c4cc(C(F)(F)F)ncn4)CC3)c2c1`, for which the “% Inhibition” value is -4% and the Z score worked out at 0.53.

Regarding `CCN(CC1CCOCC1)C(=O)N[C@@H](C)c1nnc(N)s1`, the “% Inhibition” value was -2% and the Z score is recorded as 0.3.

For the compound `N#Cc1ccc(N2CCN(C(=O)CCCc3ccccc3)CC2)cn1`, the “% Inhibition” value is reported as -3% and the Z score worked out at 0.3.

On to `CC[C@@H](Cn1ccnc1)NC(=O)Nc1cc(C)nn1-c1ccc(OC)cc1`, for which the “% Inhibition” value is recorded as -3% and the Z score worked out at 0.41.

Consider `CC1CCN(S(=O)(=O)N2CCN(C(=O)c3ccccc3F)CC2)CC1`, for which the “% Inhibition” value was -6% and the Z score was 1.15.

As for `COc1ccccc1CN(Cc1cn(CCC(N)=O)c2ccccc12)C1CC1`, the “% Inhibition” value was found to be 1% and the Z score is listed as -0.11.

As to `Cc1noc(C)c1C(=O)N[C@@H](CC(C)C)C(=O)OCc1ccccc1`, the “% Inhibition” value stood at 37% and the Z score is -5.34.

Consider `Cn1ncc2c(=O)n(C[C@H](O)COc3ccccc3)cnc21`, for which the “% Inhibition” value is listed as -7% and the Z score was found to be 1.39.

For the compound `CCC1CN(S(=O)(=O)c2ccc(C#N)nc2)C1`, the “% Inhibition” value is reported as -11% and the Z score was 1.17.

For `CCc1ncc(NC(=O)[C@H]2CC2(C)C)cn1`, the “% Inhibition” value is on record as 2% and the Z score was -0.39.

In the case of `CC(C)N(C)Cc1nc(-c2ccc3cncn3c2)no1`, the “% Inhibition” value is -17% and the Z score is on record as 1.87.

`COC(=O)c1ccc(C(=O)N2CCC(N3CCC(Oc4ccccc4F)CC3)CC2)cc1`: the “% Inhibition” value is given as -14% and the Z score is on record as 1.79.

With `CN(C)c1ccc(NC(=O)c2ccccc2C(=O)c2ccc(Cl)cc2)cc1`, the “% Inhibition” value is given as -30% and the Z score stood at 3.51.

Consider `Cc1ccc(OCCC(=O)NCc2cnn(CCO)c2)cc1C`, for which the “% Inhibition” value came to 10% and the Z score is recorded as -2.09.

For the compound `O=C(NCc1ccccn1)C1CCC(CNS(=O)(=O)c2ccc(F)cc2)CC1` (stereo not drawn), the “% Inhibition” value is listed as -8% and the Z score is 1.04.

Turning to `Cc1cnccc1NC(=O)N1CCC(CCCN2CCOCC2)CC1`, the “% Inhibition” value came out at 3% and the Z score is -0.28.

In the case of `Cn1nccc1CCNS(=O)(=O)CCc1ccc2c(c1)CCO2`, the “% Inhibition” value is reported as 2% and the Z score is on record as -0.25.

As for `O=C(Cc1ccc(F)c(F)c1)Nc1ccc(O)nn1`, the “% Inhibition” value is given as -14% and the Z score was found to be 1.42.

On to `CC(C)Oc1ccc(-c2nc3ccc(-c4ccc5c(c4)OCO5)cc3o2)cc1`, for which the “% Inhibition” value was -20% and the Z score was 1.74.

With `CN1C(=O)Cc2cc(-c3csc(COc4ccc(Cl)cc4)n3)ccc21`, the “% Inhibition” value was found to be 1% and the Z score is listed as -0.05.

As to `C[C@@H](c1ccccc1)n1cc(NC(=O)N2CCN(Cc3nc[nH]n3)CC2)cn1`, the “% Inhibition” value is -5% and the Z score is recorded as 0.61.

As to `CN(Cc1cnccn1)C(=O)[C@H](Cc1ccccc1)N(C)C`, the “% Inhibition” value is reported as -8% and the Z score turned out to be 1.56.

Regarding `COc1ccccc1NC(=O)C[C@@H]1Oc2ccccc2N=C1O`, the “% Inhibition” value is reported as 31% and the Z score is listed as -3.46.

In the case of `C[C@H](O)CN(C)C(=O)NCCc1cc(F)c(F)c(F)c1`, the “% Inhibition” value was -9% and the Z score came to 0.88.

On to `O=C(c1cncc(-c2ccc3c(c2)OCO3)n1)N1CCOCC1`, for which the “% Inhibition” value came to 5% and the Z score is -1.02.

For `CN(C)C(=O)C1CCC(CNC(=O)c2cc(Cl)c[nH]2)O1` (stereo not drawn), the “% Inhibition” value is on record as -6% and the Z score was determined as 0.58.

As for `Cc1ccc(-n2cc(-c3noc(C(=O)Nc4cccc(Cl)c4)n3)nn2)cc1`, the “% Inhibition” value is listed as -2% and the Z score came out at 0.42.

Take `O=C(NCc1cnc2cnccn12)[C@H]1CC12CCCCC2`: the “% Inhibition” value is 7% and the Z score was -1.36.

As for `CC1CC(C)CN(S(=O)(=O)N2CCCC(C(=O)NC3CCCCCCC3)C2)C1` (stereo not drawn), the “% Inhibition” value is recorded as -4% and the Z score is 0.65.

Regarding `O=S1(=O)CCC2(CC1)C[C@@H]2c1nc(-c2cscn2)no1`, the “% Inhibition” value is 3% and the Z score was -0.41.

Regarding `COc1ccc(C)cc1NC(=O)Cn1c(=O)cnc2cc(S(=O)(=O)N3CCCCC3)ccc21`, the “% Inhibition” value is -14% and the Z score was 1.39.

For the compound `Nc1ccnc([C@@H]2CCCN2S(=O)(=O)Cc2ccccc2)n1`, the “% Inhibition” value was 0% and the Z score was 0.04.

Regarding `CC[C@@H]1C[C@H]1NC(=O)c1cnc(C2=NC(C)(C(C)C)C(=O)N2)c(O)c1` (stereo partly drawn), the “% Inhibition” value came to 5% and the Z score was -0.69.

For `CC(C)(C)c1cc(CN2c3cc(Cl)ccc3CS2(=O)=O)no1`, the “% Inhibition” value came out at 8% and the Z score is -0.99.

Consider `CCCN(CC(N)=O)c1nc(-c2ccc(C)cc2)no1`, for which the “% Inhibition” value is given as -8% and the Z score came out at 1.09.

In the case of `Cc1cnccc1CN(C)Cc1cc(C(C)C)n[nH]1`, the “% Inhibition” value is listed as -8% and the Z score came to 1.55.

On to `COc1cc2c(C(=O)N3CCCCC3)c(CN3CCCCC3)n(C)c2cc1Br`, for which the “% Inhibition” value is reported as 9% and the Z score was -1.46.

For `Cc1c(CNCC2(N3CCCCC3)CCOCC2)cc(C#N)n1C`, the “% Inhibition” value was 7% and the Z score is listed as -1.06.

On to `CCOc1cc(C(=O)N[C@H](C#N)c2cnn(-c3ccccc3)c2)ccn1`, for which the “% Inhibition” value is listed as -2% and the Z score worked out at 0.47.

As to `Cc1nc(CNc2cccc(CN3CCNC(=O)C3)c2)sc1C`, the “% Inhibition” value was -13% and the Z score is on record as 2.08.

In the case of `CN(C)c1ccc(NC(=O)C2CCC2)cc1CN(Cc1cccc(F)c1)C(=O)c1ccco1`, the “% Inhibition” value was -14% and the Z score was found to be 1.25.

As to `COc1cc(C(=O)N2CC[C@@]3(C2)NC(=O)NC3=O)ccc1C(F)(F)F`, the “% Inhibition” value is recorded as -2% and the Z score came to 0.2.

`O=C1NC(c2nc(-c3ccccc3)cs2)N2CCCCC12` (stereo not drawn): the “% Inhibition” value is listed as 0% and the Z score is on record as 0.

Turning to `CC1CCC(C(C)C)c2nn(C(=O)C(C)C(c3ccccc3)c3ccccc3)c(-c3ccccc3)c21` (stereo not drawn), the “% Inhibition” value amounted to 9% and the Z score is recorded as -1.
